# In the supplement of paper PMC8728848:
# The other results are listed elsewhere or left out.
# What was measured:
# Test in all cases: glycan array binding signal (z-score within array); higher = stronger binding
# Settings in all cases: glycan notation: IUPAC condensed, linker removed
# [1] = molecular target: Neu5Ac(a2-3)Gal(b1-4)GlcNAc(b1-3)[Neu5Ac(a2-3)Gal(b1-4)GlcNAc(b1-6)]GalNAc
# Procedure, shortened: (§1)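 The binding signal is a Z-score computed within each array. Data were drawn from 3228 arrays in the Consortium for Functional Glycomics database, restricted to those with a known protein sequence. Scores were averaged over arrays of the same protein sequence at different concentrations or buffers, and over linkers, and negative values can be taken as non-binding.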
# [2] = molecular target: Neu5Ac(a2-3)Gal(b1-4)GlcNAc(b1-6)GalNAc
# Procedure, shortened: as §1
# [3] = molecular target: Neu5Ac(a2-3)Gal(b1-4)GlcNAc(b1-6)[Gal(b1-3)]GalNAc
# Procedure, shortened: as §1
# [4] = molecular target: Neu5Ac(a2-3)Gal(b1-4)GlcNAc(b1-6)[Neu5Ac(a2-3)Gal(b1-3)]GalNAc
# Procedure, shortened: as §1
# [5] = molecular target: Neu5Ac(a2-3)Gal(b1-4)GlcNAc6S
# Procedure, shortened: as §1
# [6] = molecular target: Neu5Ac(a2-3)Gal(b1-4)[Fuc(a1-3)]GlcNAc
# Procedure, shortened: as §1
# [7] = molecular target: Neu5Ac(a2-3)Gal(b1-4)[Fuc(a1-3)]GlcNAc(b1-2)Man
# Procedure, shortened: as §1
# [8] = molecular target: Neu5Ac(a2-3)Gal(b1-4)[Fuc(a1-3)]GlcNAc(b1-3)Gal
# Procedure, shortened: as §1
# [9] = molecular target: Neu5Ac(a2-3)Gal(b1-4)[Fuc(a1-3)]GlcNAc(b1-3)Gal(b1-4)GlcNAc
# Procedure, shortened: as §1
# [10] = molecular target: Neu5Ac(a2-3)Gal(b1-4)[Fuc(a1-3)]GlcNAc(b1-3)Gal(b1-4)[Fuc(a1-3)]GlcNAc(b1-3)Gal(b1-4)[Fuc(a1-3)]GlcNAc
# Procedure, shortened: as §1
# [11] = molecular target: Neu5Ac(a2-3)Gal(b1-4)[Fuc(a1-3)]GlcNAc(b1-3)GalNAc
# Procedure, shortened: as §1
# [12] = molecular target: Neu5Ac(a2-3)Gal(b1-4)[Fuc(a1-3)]GlcNAc(b1-6)[Gal(b1-3)]GalNAc
# Procedure, shortened: as §1
# [13] = molecular target: Neu5Ac(a2-3)Gal(b1-4)[Fuc(a1-3)]GlcNAc(b1-6)[Neu5Ac(a2-3)Gal(b1-3)]GalNAc
# Procedure, shortened: as §1
# [14] = molecular target: Neu5Ac(a2-3)Gal(b1-4)[Fuc(a1-3)]GlcNAc6S
# Procedure, shortened: as §1
# [15] = molecular target: Neu5Ac(a2-3)Gal6S(b1-4)GlcNAc
# Procedure, shortened: as §1
# [16] = molecular target: Neu5Ac(a2-3)Gal6S(b1-4)[Fuc(a1-3)]GlcNAc
# Procedure, shortened: as §1
# Neu5Ac(a2-3)GalNAc = molecular target: Neu5Ac(a2-3)GalNAc
# Procedure, shortened: as §1
# [17] = molecular target: Neu5Ac(a2-3)GalNAc(b1-4)GlcNAc
# Procedure, shortened: as §1
# [18] = molecular target: Neu5Ac(a2-3)[GalNAc(b1-4)]Gal(b1-4)Glc
# Procedure, shortened: as §1
# [19] = molecular target: Neu5Ac(a2-3)[GalNAc(b1-4)]Gal(b1-4)GlcNAc
# Procedure, shortened: as §1
# [20] = molecular target: Neu5Ac(a2-3)[GalNAc(b1-4)]Gal(b1-4)GlcNAc(b1-3)GalNAc
# Procedure, shortened: as §1
# [21] = molecular target: Neu5Ac(a2-3)[Neu5Ac(a2-6)]GalNAc
# Procedure, shortened: as §1
# Neu5Ac(a2-6)Gal = molecular target: Neu5Ac(a2-6)Gal
# Procedure, shortened: as §1
# [22] = molecular target: Neu5Ac(a2-6)Gal(b1-3)GlcNAc(b1-3)[Gal(b1-4)GlcNAc(b1-6)]Gal(b1-4)Glc
# Procedure, shortened: as §1
# Neu5Ac(a2-6)Gal(b1-4)Glc = molecular target: Neu5Ac(a2-6)Gal(b1-4)Glc
# Procedure, shortened: as §1
# [23] = molecular target: Neu5Ac(a2-6)Gal(b1-4)GlcNAc
# Procedure, shortened: as §1
# [24] = molecular target: Neu5Ac(a2-6)Gal(b1-4)GlcNAc(b1-2)Man
# Procedure, shortened: as §1
# [25] = molecular target: Neu5Ac(a2-6)Gal(b1-4)GlcNAc(b1-2)Man(a1-3)Man(b1-4)GlcNAc(b1-4)GlcNAc
# Procedure, shortened: as §1
# [26] = molecular target: Neu5Ac(a2-6)Gal(b1-4)GlcNAc(b1-2)Man(a1-3)[Gal(b1-4)GlcNAc(b1-2)Man(a1-6)]Man(b1-4)GlcNAc(b1-4)GlcNAc
# Procedure, shortened: as §1
# [27] = molecular target: Neu5Ac(a2-6)Gal(b1-4)GlcNAc(b1-2)Man(a1-3)[GlcNAc(b1-2)Man(a1-6)]Man(b1-4)GlcNAc(b1-4)GlcNAc
# Procedure, shortened: as §1
# [28] = molecular target: Neu5Ac(a2-6)Gal(b1-4)GlcNAc(b1-2)Man(a1-3)[GlcNAc(b1-4)][Neu5Ac(a2-6)Gal(b1-4)GlcNAc(b1-2)Man(a1-6)]Man(b1-4)GlcNAc(b1-4)GlcNAc
# Procedure, shortened: as §1
binder,measurement,setting,value
"CrataBL (Crataeva tapia), C0HJA4 (protein) AILTGVPYYILPSTSRAGFSPDNLRKNTSQLSCPLDLITQLRFPRRIGVPVIFTPQNSSLKVVPLSHNLNIHTCSDLWFCPESKIWTVKSSLTHGGSVVTTGGTFRSLGSWFRIERHGDSYKLVHCPRGSTPCRDVGIETVGGGGRRYLAPRDRPLAVRFTRASG",glycan array binding signal (z-score),[1],0.163
same,glycan array binding signal (z-score),[2],-0.258
same,glycan array binding signal (z-score),[3],0.274
same,glycan array binding signal (z-score),[4],-0.225
same,glycan array binding signal (z-score),[5],2.07
same,glycan array binding signal (z-score),[6],-0.458
same,glycan array binding signal (z-score),[7],-0.243
same,glycan array binding signal (z-score),[8],-0.448
same,glycan array binding signal (z-score),[9],0.187
same,glycan array binding signal (z-score),[10],-0.51
same,glycan array binding signal (z-score),[11],0.295
same,glycan array binding signal (z-score),[12],0.218
same,glycan array binding signal (z-score),[13],0.468
same,glycan array binding signal (z-score),[14],1.2
same,glycan array binding signal (z-score),[15],0.608
same,glycan array binding signal (z-score),[16],-0.414
same,glycan array binding signal (z-score),Neu5Ac(a2-3)GalNAc,0.523
same,glycan array binding signal (z-score),[17],-0.087
same,glycan array binding signal (z-score),[18],-0.39
same,glycan array binding signal (z-score),[19],-0.447
same,glycan array binding signal (z-score),[20],0.189
same,glycan array binding signal (z-score),[21],0.161
same,glycan array binding signal (z-score),Neu5Ac(a2-6)Gal,0.67
same,glycan array binding signal (z-score),[22],-0.52
same,glycan array binding signal (z-score),Neu5Ac(a2-6)Gal(b1-4)Glc,0.243
same,glycan array binding signal (z-score),[23],-0.345
same,glycan array binding signal (z-score),[24],-0.335
same,glycan array binding signal (z-score),[25],0.174
same,glycan array binding signal (z-score),[26],-0.271
same,glycan array binding signal (z-score),[27],0.061
same,glycan array binding signal (z-score),[28],-0.287
